Data: PubChem BioAssay AID463173 (ICCB-Longwood Screening Facility, Harvard Medical School, 2010)
About 4,300 (8.3%) of roughly 52,000 compounds were called active. Cut-off read from the data, not from the text of the source: active = survival mostly below about 52% (no sharp cut-off); inactive = mostly above about 56%. This is one part of the list.

The molecules below were run on DeltatarO mutant (assay: S. aureus survival, RN4220 and DeltatarO strains – OD600, teichoic acid synthesis inhibitors, primary screen (AID 463173)). Details: S. aureus RN4220 wild type/DeltatarO growth, OD600, 18 h, active compounds read low; concentration not given here unless noted.

Compound	survival
COc1ccc(NC(=O)CCc2nc(C3=CCN(Cc4cccc(C)c4)CC3)no2)c(OC)c1	inactive: 91%
Cc1cc(OCC(=O)N2CCN(CCc3ccncc3)CC2)cc(C)c1Cl	active: 57%
Cc1cccc(-n2c(/C=C\c3cccc(Br)c3)nc3ccccc3c2=O)c1	inactive: 113%
CCC1(CC)C(=O)NC(=NCc2ccc(OC)cc2)N(C)C1=O	inactive: 90%
CC12CNCC(C)(CN(Cc3ccccc3)C1)C2	inactive: 85%
Cc1ccc(Cn2cccc(C(=O)Nc3ccc(C)c(Cl)c3)c2=O)cc1	inactive: 83%
O=C1NC(=O)N(c2ccc3c(c2)OCO3)C(=O)/C1=C/c1ccsc1	inactive: 97%
Cc1cccc(CNCCc2ccccc2)n1	inactive: 72%
Cc1ccccc1-c1nc2ccccc2c(=O)n1C	inactive: 93%
Cc1ccc(CNC(=O)CCCn2c(=O)c3sccc3n(CC(=O)Nc3c(C)cccc3C)c2=O)cc1	inactive: 97%
COc1ccc2c(c1OC)C(=O)OC2C1c2cc3c(cc2CCN1C)OCO3 (stereo not given)	inactive: 69%
CNCC(C)c1ccccc1 (stereo not given)	inactive: 99%
CCc1cc2c(s1)NC(=O)CN=C2c1cccs1	inactive: 57%
OC1(c2ccc(F)cc2)CC2CCC(C1)N2Cc1nnnn1Cc1ccco1 (stereo not given)	inactive: 96%
C1CCCN(C2CCNCC2)CC1	inactive: 85%
Cc1nnc(NC(=O)c2cccn(Cc3ccccc3)c2=O)s1	inactive: 86%
CCCc1nc(SC)ncc1C(=O)Nc1ccc(Cl)cc1C(=O)c1ccccc1	inactive: 83%
O=C(COc1ccccc1Cl)N1CCN(CCc2ccccn2)CC1	inactive: 110%
CCOc1ccc(CN(CCc2ccc3c(c2)OCO3)Cc2cccc(Br)c2)cc1	inactive: 55%
O=C1C=C2C3CCN(CC3)C2CC1 (stereo not given)	inactive: 78%
O=c1c2ccccc2nc(CN2CCOCC2)n1-c1cccc(C(F)(F)F)c1	inactive: 89%
COc1ccc(NC(=O)CN2C(=O)CN=C(c3ccccc3)c3ccccc32)c(OC)c1	inactive: 99%
COc1ccccc1CN1CCN(C(=O)COc2cccc(C)c2)CC1	inactive: 162%
Cc1ccccc1-n1nc(C)c2c1NC(=O)CSC2c1ccccc1C(F)(F)F (stereo not given)	active: 39%
Cc1oc2cc3oc(=O)c(CCC(=O)N4CCCCC4)c(C)c3cc2c1C	inactive: 99%

Compound	survival
O=C(COc1ccc2ccccc2c1)N1CCN(Cc2ccncc2)CC1	inactive: 67%
CCOc1ccc(CN(CCc2ccc3c(c2)OCO3)Cc2ccc(CC)cc2)cc1	inactive: 47%
CCC1CN(C)CCC1(O)c1ccccc1 (stereo not given)	inactive: 81%
OCC1(CO)COC(c2cccnc2)N1 (stereo not given)	inactive: 73%
CCc1nc2ccccc2c(=O)n1-c1cccc(OC)c1	inactive: 91%
O=C(COc1cc(Cl)ccc1Cl)Nc1ccc(Cl)cc1C(=O)c1ccccc1	inactive: 69%
Fc1ccccc1CN1CCN(Cc2ccccc2F)CC1	inactive: 79%
Cc1cccc(CN2CC=C(c3noc(CCC(=O)Nc4ccc(C)c(F)c4)n3)CC2)c1	inactive: 89%
O=C(COc1ccccc1F)N1CCN(Cc2cc(=O)n3nc(-c4ccccc4Cl)sc3n2)CC1	inactive: 107%
Cc1ccc2c(c1)C(Cc1nc3ccccc3c(=O)n1-c1ccc(Br)cc1)C(=O)N2 (stereo not given)	inactive: 73%
N#CSCC(=O)N1c2ccccc2CCc2ccccc21	active: 3%
Cc1ccc(-n2c(=O)[nH]c3ccc(Br)cc3c2=O)cc1	inactive: 90%
O=C(Cn1ncc2c([nH]c3ccccc32)c1=O)NCCCN1CCN(c2ccccc2)CC1	inactive: 75% [screened at 18.75 µg/mL (by protocol)]
CCOc1nc(NCc2ccco2)nc(N2CC3CC(C2)c2cccc(=O)n2C3)n1 (stereo not given)	inactive: 97%
COc1ccc(NC2=NCC(C)S2)cc1 (stereo not given)	inactive: 70%
O=C(Nc1ccc(F)c([N+](=O)[O-])c1)c1cccn(Cc2ccccc2)c1=O	inactive: 115%
Cc1cccc(OCC(=O)N2CCN(CCc3ccccn3)CC2)c1	inactive: 48%
O=C(COc1ccc(C=C2C(=O)NC(=O)NC2=O)cc1)NCC1CCCO1 (stereo not given)	inactive: 70%
CCC(CC)C(=O)NC1CCSC1=O (stereo not given)	inactive: 82%
CC(C)(C)c1nc(N2CCN(C(=O)c3ccco3)CC2)c2nnn(Cc3ccccc3Cl)c2n1	inactive: 90%
N#CC1=C(N)Oc2c(c(=O)oc3ccccc23)C1Cc1ccccc1 (stereo not given)	inactive: 99%
CCCCCCc1cc(O)c2c(c1)OC(C)(C)C1=C2CCN(C)C1	inactive: 116%
O=C1NC(=O)N(Cc2ccccc2)C(=O)/C1=C/c1ccc2c(c1)OCO2	inactive: 100%
CCCOc1ccc(C2SCC(=O)Nc3c2c(C)nn3-c2cccc(C)c2)cc1OC (stereo not given)	active: 41%
CN1C(=O)C(=C/C=C/c2ccccc2)C(=O)N(C)C1=O	inactive: 99%

Compound	survival
Cc1cccc(Cn2cccc(C(=O)Nc3ccc4c(c3)OCCO4)c2=O)c1	inactive: 91%
CCN(CC)CCSc1nc2ccccc2c(=O)n1-c1ccc(Cl)cc1	inactive: 148%
CCOc1ccc(NC(=O)Cn2cc(C(=O)c3ccccc3)c3ccccc32)cc1	inactive: 63%
CC(C)C12CN3CC(C(C)C)(CN(C1)C3c1ccccn1)C2=O (stereo not given)	inactive: 80%
COC(=O)C1(O)c2ccccc2-c2ccccc21	inactive: 71%
CN(C)S(=O)(=O)c1ccc(N2CCNCC2)cc1	inactive: 84%
COc1ccc(C)cc1NC(=O)N(Cc1ccc2c(c1)OCO2)C1CCN(Cc2ccccc2)CC1	inactive: 94%
CCOc1ccc(CN(CCc2ccc3c(c2)OCO3)Cc2cccc(OC)c2)cc1	inactive: 44%
Cc1cccc(-c2nc(CN3C(=O)CN=C(c4ccccc4)c4ccccc43)c(C)o2)c1	active: -2%
Cc1ccc(-n2c(/C=C\c3ccc(F)cc3)nc3ccccc3c2=O)cc1Cl	inactive: 90%
Cn1c(=O)n(C)c2cc(CNCCc3ccc(F)cc3)ccc21	inactive: 75%
Cc1ccc2nc(NC(=O)c3cccn(Cc4ccc(Cl)cc4)c3=O)sc2c1	inactive: 83%
N#CSC12CN3CN(CN(C3)C1)C2	inactive: 88%
Cc1ccc(Cl)cc1NC(=O)N(Cc1ccc2c(c1)OCO2)C1CCN(Cc2ccccc2)CC1	inactive: 55%
Cc1ccc(NC(=O)c2cccn(Cc3ccccc3C)c2=O)c(C)c1	inactive: 89%
O=C(CN1CCC(N2CCCCC2)CC1)N1CCC2(CC1)OCCO2	inactive: 92%
CSc1nnc(CCN)n1C	inactive: 109%
CC(C)c1nn2c(=O)cc(COC(=O)Cc3ccccc3)nc2s1	inactive: 80%
CN1C(=O)C(C(=O)O)C2CC1Oc1ccccc12 (stereo not given)	inactive: 110%
O=C1CN=C(c2ccccc2Cl)c2cc(Cl)ccc2N1Cc1cccc(Cl)c1	inactive: 117%
COc1cccc(-n2c(/C=C/c3ccccc3O)nc3ccccc3c2=O)c1	active: 4%
Nc1c(C(=O)Nc2ccc(Cl)c(C(F)(F)F)c2)sc2nc3c(cc12)N1CCC3CC1	active: 4%
COc1ccc(-n2c(/C=C\c3ccccc3F)nc3ccccc3c2=O)cc1OC	inactive: 89%
Cc1ccccc1-n1nc(C)c2c1NC(=O)CSC2c1ccc(N(C)C)cc1 (stereo not given)	active: 43%
CCCCCc1nc2ccccc2c(=O)n1-c1ccc(C)cc1	inactive: 52%

Compound	survival
COC(=O)C1=C(N)Oc2cc(C)oc(=O)c2C12C(=O)Nc1ccccc12 (stereo not given)	inactive: 96%
Cc1ccc(CN2C(=O)c3ccccc3Sc3ccc(C(=O)N4CCC5(CC4)OCCO5)cc32)cc1	inactive: 101%
CC(C)(C)C(=O)c1cn(CC(=O)NCc2ccco2)c2ccccc12	inactive: 93%
N#CC(C#N)=Cc1sc2ccccc2c1Cl	inactive: 93%
CC1(C)CC(=O)C(C2(O)C(=O)NC(=O)NC2=O)=C(O)C1	inactive: 70%
Cc1ccccc1Cn1cccc(C(=O)Nc2nc3ccccc3s2)c1=O	inactive: 102%
CCCCc1nn2c(=O)cc(COC(=O)Cc3ccccc3)nc2s1	inactive: 75%
C=Cc1ccc(Cn2c(C)c(CNCCc3cc(OC)ccc3OC)c(C(=O)O)c2C)cc1	inactive: 58%
O=C1CSC2N1CCNC21CCCCC1 (stereo not given)	inactive: 95%
CN1CCCC(C(=O)c2ccccc2)C1 (stereo not given)	inactive: 99%
Cc1cc(C=C(C#N)C#N)c(C)n1C1CCCC1	inactive: 64%
O=C(Nc1cc(C(F)(F)F)cc(C(F)(F)F)c1)c1cccn(Cc2ccccc2Cl)c1=O	inactive: 73%
COc1cc(NC(=O)CN2C3CCC2CC(O)(c2cccnc2)C3)cc(OC)c1 (stereo not given)	inactive: 102%
CC(C)(C)c1ccc(C(=O)Nc2ccc(Cl)cc2C(=O)c2ccccc2)cc1	active: 6%
c1cc2c(cc1N1CCNCC1)OCCO2	inactive: 90%
O=C(COc1ccc(Cl)cc1)Nc1ccc(Cl)cc1C(=O)c1ccccc1	inactive: 83%
Cc1c(C(c2ccc(F)cc2)c2c(O)c3ccccc3oc2=O)c(=O)n(-c2ccccc2)n1C (stereo not given)	inactive: 89%
O=C1CC(c2c(F)cccc2Cl)c2c(c3ccccc3oc2=O)O1 (stereo not given)	inactive: 68%
CC(=O)N1CC(=O)Nc2ccc(F)cc2C1c1ccccc1 (stereo not given)	inactive: 81%
CCC12CN3CC(CC)(CN(C1)C3c1ccccn1)C2=O (stereo not given)	inactive: 75%
CN=Cc1c(O)[nH]c(=O)[nH]c1=O	inactive: 85%
CCCSc1nc2ccccc2c(=O)n1-c1ccccc1OC	active: -2%
Cc1cc(C)cc(-n2c(=O)[nH]c3ccccc3c2=O)c1	inactive: 65%
CC1=NN(c2ccccc2)C(=O)/C1=C\c1c(O)[nH]c(=O)[nH]c1=O	inactive: 69%
COCc1c(CN)cnc(C)c1N	inactive: 75%
